Measured values taken from US20200385465A1 (SHANGHAI NOVAMAB BIOPHARMACEUTICALS, published 2020).

B1: humanized CD47 antibody Fc fusion protein (MY2238) expressed by the CHO-S system (Fc fusion)
chain: QVQLQESGGGLVQPGGSLRLSCAASGYAYTSDCMGWFRQTPGKGLEGVALIYTPGNSTNYADSVKGRFTISQDNSKSTVYLQMNSLRAEDTAMYYCAARRGACSLRLPFFYWGQGTLVTVSS[human IgG4 Fc with changes skipped]
notes: also called candidate antibody MY2238
B2: humanized CD47 single domain antibody Fc fusion protein Nb1902-Fc (Fc fusion)
chain: QVQLQESGGGLVQPGGSLRLSCAASGYAYTSDCMGWFRQTPGKGLEGVALIYTPGNSTNYADSVKGRFTISQDNSKSTVYLQMNSLRAEDTAMYYCAARRGACSLRLPFFYWGQGTLVTVSS[human IgG4 Fc with changes skipped]
notes: Expressed in HEK293F; also called humanized single domain antibody Nb1902-Fc

Experiments:
[1] = target: T1, human full-length CD47 protein (human, UniProt Q08722); experiment: flow cytometry on human erythrocytes, donor 1, anti-human Fc-FITC
T1 construct: whole, on cells; also called CD47 stably transferred cells; CD47 on the surface of erythrocyte

[2] = target: T1, human full-length CD47 protein; experiment: flow cytometry on human erythrocytes, donor 2, anti-human Fc-FITC
hCD47 (ECD)-Fc protein = target: T2, hCD47 (ECD)-Fc protein (human, UniProt Q08722 fragment, limits assumed); experiment: BLI, ForteBio Octet, Protein A probe, 30° C.
T2 construct: extracellular domain; Expressed in HEK293F, purified on Protein A; also called hCD47 (ECD)-Fc antigen; not shown: IgG1 Fc as encoded by the pFUSE-IgG1 vector

[3] = target: T1, human full-length CD47 protein; experiment: competition flow cytometry on CD47 stably transfected cells, antibody titrated against 5 µg hSIRPa (ECD)-Fc-Biotin

Binder	EC50 [1]	EC50 [2]	Kd (hCD47 (ECD)-Fc protein)	IC50 [3]
B1	0.662 µg/mL	0.644 µg/mL	–	–
B2	–	–	1.65 nM	1.51 µg/mL
